Laboratory results as given in the RNAGym collection of RNA variant scans (doi:10.1093/nar/gkz1192).
Read counts are not given, so values of variants with three or more changes are uncertain.

B1: CPEB3 Ribozyme (parent)
chain: UAACAGGGGGCCACAGCAGAAGCGUUCACGUCGCAGCCCCUGUCAGAUUCUGGUGAAUCUGCGAAUUCUGCUGUAUAUCUC

Variants of: B1
Experiment: self-cleavage, relative activity (ratio to wild type); higher = more cleavage; in vitro, sequencing
Summary of the method: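 Barcoded CPEB3 ribozyme mutants, produced by rounds of error-prone PCR, self-cleaved while being transcribed with T7 RNA polymerase for 5 hours at 37°C and during a subsequent 15 min DNase I step before EDTA was added. Sequencing of template-switched cDNA on Illumina gave cleaved and total reads, and DNA sequencing assigned barcodes to variants. Each variant's relative activity is its cleaved/total read fraction divided by the unmutated ribozyme's fraction, averaged across three batches. A variant needed a minimum of 5 reads.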

Variant | self-cleavage
U43G U48C U49A A64G | 0.12
U43C U49G A57G C71A U80C | 0.1
U43C U66C U76C | 0.63
U43C A45G U49C | 0.23
C44A U48C U67C U74C | 0.17
A45C U60A A64G U72C | 0.23
A45C U60C A64U C79U | 0.05
U43C C44G C50A U51A U80C | 0.1
U43C G63U A64G U67C U78A | 0
U43C A45U U78C | 0.11
U43C U60C C79A | 0.09
U43C A57G U66C U78A | 0.23
U43A U51A U72A | 0.84
U43C A45G U80C | 0.74
U43C A56C U67C U78C | 0.18
U43C A45U U48C C59U A65G A75G | 0.02
U43C A45C A75U | 0.23
U43G U76C U80C | 0.17
A45C U51C A77U C81U | 0.3
U43A U72C U74A | 1.27
U43C A57G A64C U74G | 0.15

Variant | self-cleavage
A45C U51A U74C | 0.44
U43C U54C A75G | 0.25
U43A U54G A56G U60C | 0.32
U43C A57G U80G | 0.2
A45C U66C U78A | 0.16
U43G U51A U80A | 0.17
U43A U54C U72C | 1.27
A45G A47G A57G | 0.43
U43C A45G U48C | 0.08
U43A U49C G52C | 0.5
U43C A47G U72A | 0.2
U43A U58C U76C U78C | 0.48
A45C G53C A64G A65G | 0.06
U43C U51C A56U | 0.38
A45C A57G C79U | 0.38
A45C A64G U69A | 0.13
U43C A56G U60G A64G | 0.1
U43C U48A A56G | 0.18
U43C U49G U60A U69A | 0.12
C44U U49C A56U | 0.31
U43G U67C U69C | 0.04

Variant | self-cleavage
U43A U51C U72C | 1.12
U43A U51C U72G | 0.99
U43C C59U U80C | 0.46
U43C U49C A56G G63A A64G U76C U80C | 0.27
U43C U60G U76A | 0.1
U43C U54C U66C A77G | 0.12
U43C A45G A75G | 0.16
U43G A57G U72C U78C | 0.15
U43C A45G U48C A56U | 0.16
C44U U54C U72C | 0.39
U43C U51A U66A U67C U69G | 0.14
U43A U60C G63U | 0.93
C44U U51C A65G U67C | 0.13
U43C U58A U76C | 0.17
U43C U49A A56G | 0.24
U43C U51A A77G | 0.49
U43C A56G U66C U80C | 0.11
U43C C44A U74A | 0
A45C U48C U74C A75G | 0.12
U43G A47G C71U U78C | 0.06
U43C U49C G53A | 0.24

Variant | self-cleavage
U43C A64U A75G | 0.13
U43G U58C U60A | 0.36
U43C U60C A65U | 0.15
U43C U60C A64G U67C U69C U80C | 0.21
U43C A47G C71A C79U | 0.25
U43C A45U U49A | 0.29
U43C U48C U66C | 0.16
U43G A56G U69A | 0.11
U43C U48C U49A | 0.37
U43C U48C C81U | 0.34
U43C U48C C81A | 0.12
U43C A56G A64G A77G U80C | 0.11
A45C A57G C62A A64G A75G | 0.17
U43C A45G U49G G55A | 0.18
U43C A45U U54A U74A A75G | 0.24
A45G A47G A56G G61A | 0.36
U43C U58A U72C | 0.16
U43C U54A A65G | 0.33
U43A U51C U67C | 0.3
U43C U49C U60C U78C | 0.15
U43C A57G G61A A65G U76A | 0.14
